Measured values reported in PubChem BioAssay AID1768 (National Center for Advancing Translational Sciences (NCATS), 2009).
The campaign covered roughly 270,000 compounds. About 620 (0.23%) were called active. Inconclusive means that the source gave no clear call. Such entries were picked first, then a sample of the others. The call rests on the fitted dose curve; in most records, active means well fitted inhibition curve with a large enough effect in the polarisation, with a control signal flat (not every such curve was filed as active); inconclusive means small, poorly fitted or top-dose-only effect, or effect the other way, or a change in a side signal; inactive means no such curve, though single readings can be large or run the other way; the % refers to the polarisation. Where the call is inconclusive, the potency comes from a doubtful curve fit. “Side channel” marks fits to a control or component signal instead of the main read-out.

What follows are molecules tested against Menin (Homo sapiens) (UniProt O00255) (assay: qHTS Assay for Inhibitors Targeting the Menin-MLL Interaction in MLL Related Leukemias: Competition With Texas Red Labeled MLL-derived Mutant Peptide). Details: fluorescence polarization; series mostly up to 61.6 µM.
Sequence of UniProt O00255 (O00255 whole entry, looked up): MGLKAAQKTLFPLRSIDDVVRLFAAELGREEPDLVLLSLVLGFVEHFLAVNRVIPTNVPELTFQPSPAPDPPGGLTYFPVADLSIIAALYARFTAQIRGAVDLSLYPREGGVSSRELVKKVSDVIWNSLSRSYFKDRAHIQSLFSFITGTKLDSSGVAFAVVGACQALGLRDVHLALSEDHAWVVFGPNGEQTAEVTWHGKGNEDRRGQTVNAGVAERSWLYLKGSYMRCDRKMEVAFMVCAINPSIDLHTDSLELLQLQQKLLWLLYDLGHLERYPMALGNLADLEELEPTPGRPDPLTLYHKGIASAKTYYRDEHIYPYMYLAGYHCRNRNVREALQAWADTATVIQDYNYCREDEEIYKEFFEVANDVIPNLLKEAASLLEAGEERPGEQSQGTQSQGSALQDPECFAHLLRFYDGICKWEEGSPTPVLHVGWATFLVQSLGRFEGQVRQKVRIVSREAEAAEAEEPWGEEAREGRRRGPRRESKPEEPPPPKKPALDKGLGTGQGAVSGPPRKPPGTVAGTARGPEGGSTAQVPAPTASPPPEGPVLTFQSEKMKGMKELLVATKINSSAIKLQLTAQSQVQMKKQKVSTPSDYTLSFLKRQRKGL
Potency means the concentration at half of the fitted maximal effect; tags describe the fitted curve by direction and shape or compound fluorescence and quenching.

Row | SMILES | Potency
1 | COc1ccc(NC(=O)CC2C(=O)N(C)C(=S)N2CCc2ccccc2)cc1 (stereo unspecified) | inconclusive: 25.1 µM [quencher, side channel, partial curve]
2 | Cc1ccc(/C=N/n2cnc3sc(-c4ccccc4)cc3c2=O)o1 | inconclusive: 20 µM [quencher, side channel, partial curve]
3 | O=C(/C=C/c1ccc(Cl)cc1Cl)NC(=S)Nc1ccccn1 | inconclusive: 22.4 µM [inhibitor, single point]
4 | CN(C)c1ccc(C(=O)C(O)c2ccccc2)cc1 (stereo unspecified) | inactive
5 | CCOc1ccc(N(CC(=O)NC2CCCC2)C(=O)CSc2nnc(COc3ccccc3)o2)cc1 | inconclusive: 22.4 µM [fluorescent, side channel, partial curve]
6 | CCOC(=O)c1ccccc1NC(=O)c1ccccc1NS(C)(=O)=O | inactive
7 | COc1ccc(Nc2nc(S(=O)(=O)c3ccc(C)cc3)c(Cl)s2)cc1 | inconclusive: 14.1 µM [quencher, side channel, partial curve]
8 | CCCCCCn1c(N2CCCC2)nc2c1c(=O)[nH]c(=O)n2C | inconclusive: 12.6 µM [fluorescent, side channel, partial curve]
9 | O=C(Nc1nccs1)NC1CCCCC1 | inconclusive: 11.2 µM [inhibitor, partial curve]
10 | Cc1ccc(-c2cc(-c3ccccc3C)[nH]n2)c(O)c1 | inconclusive: 25.1 µM [quencher, side channel, single point]
11 | O=C(N/N=C/c1c[nH]c2ccccc12)C1COc2ccccc2O1 (stereo unspecified) | inconclusive: 17.8 µM [quencher, side channel, partial curve]
12 | COc1ccc(C2=NS(=O)(=O)N(C)C(C(=O)N3CCC(C)CC3)=C2)cc1 | inactive
13 | Cc1sc2nc(CSc3ccc([N+](=O)[O-])c(C(F)(F)F)c3)[nH]c(=O)c2c1C | inconclusive: 11.2 µM [quencher, side channel, partial curve]
14 | Fc1ccc(N/N=C/c2ccc(N3CCOCC3)cc2)c(F)c1 | inconclusive: 28.2 µM [quencher, side channel, partial curve]
15 | Cc1ccc(S(=O)(=O)Nc2ccc(NC(=O)Nc3cccc(C(F)(F)F)c3)cc2)cc1 | inconclusive: 11.2 µM [quencher, side channel, partial curve]
16 | Cn1c(=O)c2c(nc(Oc3cccc(O)c3)n2C)n(C)c1=O | inconclusive: 1.12 µM [inhibitor, full curve, poor fit]
17 | CC(C)c1cc(C(F)(F)F)n2nc(C(=O)Nc3ccc4c(c3)OCO4)cc2n1 | inconclusive: 14.1 µM [fluorescent, side channel, partial curve]
18 | N/C(=N\OC(=O)c1ccc(Cl)c(Cl)c1)c1ccccn1 | inconclusive: 35.5 µM [inhibitor, partial curve]
19 | O=C(CCl)NC(Cc1c[nH]c2ccc(OCc3ccccc3)cc12)C(=O)O (stereo unspecified) | inconclusive: 39.8 µM [quencher, side channel, single point]

Row | SMILES | Potency
20 | CCn1c(SCC(=O)c2c[nH]c3ccccc23)nc2cc(S(=O)(=O)N3CCOCC3)ccc21 | inactive
21 | CC1=NN(c2ccccc2)C(=O)/C1=C/c1c(O)n(-c2ccc(F)c(Cl)c2)[nH]c1=O | inconclusive: 7.94 µM [quencher, side channel, partial curve]
22 | CC(C)C[C@H](NC(=O)[C@H](CC(C)C)NC(=O)[C@@H](Cc1c[nH]c2ccccc12)NC(=O)[C@H](Cc1ccccc1)NC(=O)[C@@H](Cc1c[nH]c2ccccc12)NC(=O)[C@H](CCC(N)=O)NC(=O)[C@H](CCC(N)=O)NC(=O)[C@@H]1CCCN1C(=O)[C@H](CCCCN)NC(=O)[C@@H]1CCCN1C(=O)[C@H](N)CCCN=C(N)N)C(N)=O | inactive
23 | O=C(CCCN1C(=O)/C(=C/c2ccccc2)SC1=S)Nc1ccccc1O | inconclusive: 28.2 µM [quencher, side channel, partial curve]
24 | N=c1oc2ccc([N+](=O)[O-])cc2cc1C(=O)NCc1ccccc1 | inconclusive: 31.6 µM [quencher, side channel, single point]
25 | CC(Oc1ccc2c(c1)c1ccnc3c4ccccc4c(=O)n2c13)C(=O)NCCN1CCOCC1 (stereo unspecified) | inconclusive: 15.8 µM [inhibitor, partial curve]
26 | COCCCn1[nH]c2c3c(ccc2c1=O)C(=O)c1ccccc1C3=O | inconclusive: 17.8 µM [quencher, side channel, partial curve]
27 | CN(C)c1cccc(C(=O)N(C)C2CCCN(Cc3ccccc3F)C2)c1 (stereo unspecified) | inconclusive: 10 µM [inhibitor, partial curve]
28 | Nc1nnnn1/N=C/c1ccc(Br)cc1 | inactive
29 | CCC(=O)OCc1c(C(F)(F)F)nn(C)c1Sc1ccc(Cl)cc1 | inconclusive: 3.55 µM [inhibitor, single point]
30 | O=C(NC(=S)Nc1ccccn1)c1cc(-c2ccccc2)nc2ccccc12 | inconclusive: 25.1 µM [inhibitor, partial curve]
31 | N#CC(C(=O)Nc1ccccc1)=C1Nc2ccccc2N1 | inconclusive: 39.8 µM [quencher, side channel, single point]
32 | O=c1cc(-c2ccc(Br)cc2)[nH][nH]1 | inconclusive: 20 µM [quencher, side channel, partial curve]
33 | C/C(=N\NC(=O)c1ccccc1)c1cc2cc([N+](=O)[O-])ccc2oc1=O | inconclusive: 39.8 µM [quencher, side channel, single point]
34 | O=C(CSc1ncnc2c1oc1ccccc12)NC1CCCC1 | inconclusive: 35.5 µM [inhibitor, single point]
35 | CC(C)CNC(=O)COC(=O)c1ccc(F)cc1Cl | inactive
36 | Cc1cc(C)n2c(SCc3ccccc3Cl)nnc2n1 | inactive
37 | O=C(C1=C[C@H](c2csc3ccccc23)C[C@H](OCCCCO)O1)N1CCN(Cc2ccc3c(c2)OCO3)CC1 | inconclusive: 2.51 µM [fluorescent, side channel, full curve]
38 | CS(=O)(=O)Nc1cccc(-c2nc(NCCN3CCOCC3)c3ccccc3n2)c1 | inconclusive: 10 µM [inhibitor, partial curve, poor fit]

Row | SMILES | Potency
39 | CCOc1ccc(NC(=O)CSc2nnc(C34CC5CC(CC(C5)C3)C4)n2C)cc1 | inconclusive: 11.2 µM [fluorescent, side channel, partial curve]
40 | COc1ccc(NC(=O)C2CCCN(S(=O)(=O)c3ccc4[nH]c(=O)ccc4c3)C2)cc1 (stereo unspecified) | inconclusive: 39.8 µM [fluorescent, single point]
41 | COc1ccc(-c2csc(NC(=O)c3cccc(S(=O)(=O)N4CCN(C)CC4)c3)n2)cc1 | inconclusive: 3.55 µM [quencher, side channel, partial curve]
42 | CCOc1ccc(C(=S)NC2CCCCC2)cc1 | inconclusive: 3.16 µM [inhibitor, partial curve, poor fit]
43 | COc1cc(OC)cc(C2C(C#N)=C(N)Oc3n[nH]c(-c4cccnc4)c32)c1 (stereo unspecified) | inactive
44 | CC(C)C[C@H](NC(=O)CN(C)C(=O)[C@H](Cc1ccccc1)NC(=O)[C@H](Cc1ccccc1)NC(=O)[C@H](CCC(N)=O)NC(=O)[C@H](CCC(N)=O)NC(=O)[C@@H]1CCCN1C(=O)[C@H](CCCCN)NC(=O)[C@@H]1CCCN1C(=O)[C@@H](N)CCCN=C(N)N)C(=O)N[C@@H](CCS(C)(=O)=O)C(N)=O | inactive
45 | C(=N\N(c1ccccc1)c1ccccc1)/c1ccc(N2CCOCC2)s1 | inconclusive: 8.91 µM [quencher, side channel, partial curve]
46 | COc1ccc(-c2csc(Nc3cccnc3)n2)cc1OC | inconclusive: 17.8 µM [quencher, side channel, partial curve]
47 | CCc1nc(SCC(=O)OC)c2c3c(sc2n1)COC(C)(C)C3 | inconclusive: 17.8 µM [fluorescent, side channel, partial curve]
48 | CCOC(=O)c1cc2ccccc2n1CC(=O)c1ccccc1 | inconclusive: 31.6 µM [fluorescent, side channel, single point]
49 | Cc1ccc(C2C3CSCC=C3C(C#N)=C(N)C2(C#N)C#N)cc1 (stereo unspecified) | inactive
50 | COc1ccc(-c2c(C)nn3c(N4CCCCCC4)cc(C)nc23)cc1OC | inconclusive: 8.91 µM [inhibitor, full curve]
51 | O=c1cc(-c2ccc(O)cc2)oc2cc(O[C@@H]3O[C@H](CO)[C@@H](O)[C@H](O)[C@H]3O[C@@H]3OC[C@](O)(CO)[C@H]3O)cc(O)c12 | inconclusive: 22.4 µM [inhibitor, partial curve]
52 | COC(=O)c1c(SCc2ccc(C#N)cc2)nc(=O)[nH]c1C | inconclusive: 25.1 µM [inhibitor, single point]
53 | Cc1cnc(C(=O)N2CCc3c([nH]c4ccccc34)C2c2ccc(F)cc2)cn1 (stereo unspecified) | inconclusive: 4.47 µM [inhibitor, single point]
54 | Cc1ccc(NC2CC(=O)N(c3cccc([N+](=O)[O-])c3)C2=O)cc1 (stereo unspecified) | inconclusive: 39.8 µM [quencher, side channel, single point]
55 | Cc1ccc(SCC(c2ccccc2)N2CCN(CCc3ccccc3)CCC2=O)cc1 (stereo unspecified) | inconclusive: 2.82 µM [fluorescent, side channel, full curve, poor fit]
56 | Cc1ccc(S(=O)(=O)N2CCN(CCNC(=O)C(=O)Nc3ccc(F)cc3)CC2)cc1 | inconclusive: 28.2 µM [fluorescent, side channel, single point]
